Source: PMC4336329 (PLoS ONE, 2015)
Screen size: about 310,000 compounds; about 2,200 (0.71%) showed an effect of 50% or more. The effect is printed as a negative number. The list shows a part of the results.

These compounds were tested against human ether-à-go-go-related gene (hERG) potassium channel (human, UniProt Q12809) (assay: primary screen, population patch clamp on CHO cells stably expressing hERG).
Sequence of human ether-à-go-go-related gene (hERG) potassium channel (Q12809 whole entry, looked up): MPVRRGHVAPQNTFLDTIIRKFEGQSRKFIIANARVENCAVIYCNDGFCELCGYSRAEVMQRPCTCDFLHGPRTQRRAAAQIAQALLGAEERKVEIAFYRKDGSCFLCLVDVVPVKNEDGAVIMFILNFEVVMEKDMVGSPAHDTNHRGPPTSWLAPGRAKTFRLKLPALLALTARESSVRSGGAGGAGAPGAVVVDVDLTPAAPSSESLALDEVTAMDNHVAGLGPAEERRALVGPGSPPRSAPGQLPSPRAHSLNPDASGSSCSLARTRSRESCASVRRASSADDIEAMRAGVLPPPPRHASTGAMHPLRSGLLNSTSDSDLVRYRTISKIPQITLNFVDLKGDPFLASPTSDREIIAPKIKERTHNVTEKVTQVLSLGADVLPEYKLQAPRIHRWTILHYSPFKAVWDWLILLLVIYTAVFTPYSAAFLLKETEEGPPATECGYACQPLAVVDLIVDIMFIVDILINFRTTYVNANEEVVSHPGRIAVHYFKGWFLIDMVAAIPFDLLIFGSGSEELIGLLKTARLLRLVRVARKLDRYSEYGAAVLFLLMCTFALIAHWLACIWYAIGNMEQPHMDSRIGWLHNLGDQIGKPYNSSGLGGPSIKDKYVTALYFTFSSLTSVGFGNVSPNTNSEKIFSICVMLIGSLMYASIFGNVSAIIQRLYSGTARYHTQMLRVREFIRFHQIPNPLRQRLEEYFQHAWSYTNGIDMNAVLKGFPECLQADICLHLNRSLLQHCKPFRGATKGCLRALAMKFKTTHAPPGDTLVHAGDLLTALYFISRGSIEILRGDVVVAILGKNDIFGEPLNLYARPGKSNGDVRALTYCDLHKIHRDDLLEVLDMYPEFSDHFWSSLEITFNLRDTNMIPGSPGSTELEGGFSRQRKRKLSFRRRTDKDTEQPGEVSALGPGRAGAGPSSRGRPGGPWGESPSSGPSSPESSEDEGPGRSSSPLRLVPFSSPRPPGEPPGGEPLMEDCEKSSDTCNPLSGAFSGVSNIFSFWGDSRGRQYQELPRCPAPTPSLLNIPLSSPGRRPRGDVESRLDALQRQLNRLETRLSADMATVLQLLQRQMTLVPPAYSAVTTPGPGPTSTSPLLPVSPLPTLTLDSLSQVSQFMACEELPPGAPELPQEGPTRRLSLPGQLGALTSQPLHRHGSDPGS

Structure (SMILES) | hERG current change (%, negative = inhibition) at 1uM
Cc1ccccc1C(=O)OCn1nnc2ccccc2c1=O | 8.4%
CC(=O)c1ccc(NC(=S)NCC(c2ccco2)N2CCCC2)cc1 (stereo not shown) | 19%
Nc1nc(SCC(=O)Nc2ccccc2Sc2ccccc2)n[nH]1 | 2.31%
Cc1ccn2c(NC(=O)C(C)(C)Oc3ccc(Cl)cc3)c(-c3cccs3)nc2c1 | 7.44%
COc1ccc(-c2nc(-c3ccc(Br)o3)no2)cc1 | 8.64%
CN(C)CCCN(C(=O)c1ccc(S(=O)(=O)N2CCc3ccccc32)cc1)c1nc2c(Cl)cccc2s1.Cl | -13.1%
COCCN1C(=O)N[C@@H](CCc2ccccc2)[C@@H](C(=O)OC)[C@H]1C | 5.65%
O=C(CN1CCC(NC(=O)C2CCCCC2)CC1)NCc1ccco1 | 6.4%
Cc1ccccc1N=Cc1c(O)n(-c2nccs2)c(=O)c2ccccc12 | 7.42%
Cc1cc(=O)oc2c3c(cc(OCC(=O)NCC(=O)O)c12)OC(C)(C)CC3 | 17.9%
N#Cc1ccccc1NC(=O)Nc1ccc(Cl)cc1 | 7.31%
COc1ccc(Cl)cc1NC(=O)CN(C)C(=O)c1ccc2c(c1)CC(c1ccccc1)OC2=O (stereo not shown) | -14.2%
S=c1[nH]nc(-c2ccncc2)n1/N=C/c1cn(-c2ccccc2)nc1-c1ccccc1 | 8.66%
Nc1nonc1-n1nnc(C(=O)N/N=C/c2ccc3c(c2)OCO3)c1CSc1ccccc1 | 8.06%
CN(C)CCCN1C(=O)C2CCc3[nH]c4ccccc4c3C2C1=O (stereo not shown) | 2.37%
CCCC(CCC)C(=O)NC1CCN(Cc2ccccc2)CC1.Cl | 5.36%
CCCN(CCC)CCNC(=S)Nc1ccc2nc3n(c(=O)c2c1)CCCCC3 | -1.32%
COc1ccc(C(CNC(=O)c2ccc(N3CCCC3=O)cc2)N(C)C)cc1 (stereo not shown) | 8.28%
COc1ccc(C(CNC(=O)c2cc(C)on2)N(C)C)cc1 (stereo not shown) | 15.4%
O=C(NC1CC1)c1ccc(CSCc2cccc(F)c2)o1 | -2.48%
Cc1ccccc1OCC(=O)Nc1ccc2c(c1)OCO2 | 10.1%
O=C1c2cccc(OCc3ccc(F)cc3)c2CCN1Cc1ccc(F)cc1 | 11.8%

Structure (SMILES) | hERG current change (%, negative = inhibition) at 1uM
N/C(=N\OC(=O)Cc1ccccc1[N+](=O)[O-])c1ccncc1 | 2.69%
CCCC(CCC(=O)Nc1cccc([N+](=O)[O-])c1)C(=O)O (stereo not shown) | 2.76%
CCOC(=O)[C@@H]1[C@H]2COc3ccc(Br)cc3[C@@H]2N2C(=O)N(c3ccc(Br)cc3)C(=O)[C@]12C | 16%
COc1ccc(NC(=O)C(CC(C)C)NC(=O)C2CCC(C)CC2)c(OC)c1 (stereo not shown) | 8.53%
O=C(NCCN1C(=O)CSC1=O)c1ccccc1 | 13.3%
CC(C)(C)NC(=O)c1oc2ccccc2c1COc1ccccc1 | 12.4%
FC(F)(F)c1ccc(/C=N/n2c(C3CCCCC3)n[nH]c2=S)cc1 | 10.9%
CCC(=O)Nc1ccc(NC(=O)CSc2nnc(C(C)C)n2C)cc1 | 12.1%
O=C1CC(N2CCCCC2)C(=O)N1c1ccccc1 (stereo not shown) | 1.32%
CC(C)(C)c1cc[n+](-c2[nH]c(=O)sc2/C=N/N=C(\[O-])c2ccccc2)cc1 | 13.7%
CCn1c(C(c2ccccc2)c2ccccc2)n[nH]c1=S | 10.3%
Nc1cc(Cl)nc(N/N=C/c2ccc([N+](=O)[O-])cc2)n1 | 1.47%
CC(=O)c1ccc(NC(=O)C2CCN(S(=O)(=O)c3cccc4cccnc34)CC2)cc1 | 16.6%
O=CN1CCN(C(=O)c2cccc3c2-c2ccccc2C3=O)CC1 | 10.9%
O=C(CSc1nnc2c(Cl)cc(C(F)(F)F)cn12)NCc1ccc(F)cc1 | 2.9%
CCOC(=O)N1C(=O)C2(CCCCC2)N(c2ccccc2Cl)C1=S | 7.88%
CCOc1ccc(/C(O)=C2\C(=O)C(=O)N(CCOCCO)C2c2ccccc2OC)cc1 (stereo not shown) | 6.84%
Cc1cccn2c(=O)c(/C=C(\C#N)C(=O)NCc3ccco3)c(N3CCCCCC3)nc12 | -2.54%
CCOc1cc(/C=N\NC(=O)c2ccc(C)nc2)ccc1OC(=O)c1ccc(F)cc1 | 5.49%
CN(C)Cc1c(O)ccc2c(=O)c(-c3ccccc3Cl)coc12 | 13.4%
CCN(CC)S(=O)(=O)c1ccc(-c2nnc(SCC(=O)Nc3ccc4c(c3)OCO4)o2)cc1 | 7.5%
